Measurements taken from PubChem BioAssay (Tox21).
This list was built around the results that the source calls inconclusive (neither active nor inactive); the mix of calls is not that of the screen. For some assays here: Potencies beside an inconclusive call are fits to weak or partial responses and may not hold up. Activity calls are given as the source filed them. Unless noted, calls follow the shape of the dose curve; as a rule, active = well fitted curve in the direction sought with a large enough effect in the repeat runs; inconclusive = weak or mixed curves; inactive = no such curve, though single readings can be large; an effect the other way counts as inactive or inconclusive.

Key:
[1] = qHTS assay for small molecule agonists of the antioxidant response element (ARE) signaling pathway (AID 743202; active = well fitted activation curve with a large enough effect in the signal ratio in the repeat runs, not every such curve was filed as active; inconclusive = weak or mixed curves, or effect the other way; inactive = no such curve, though single readings can be large or run the other way; the % refers to the signal ratio; also: potency is read from the fitted curve at half-maximal effect; as to activation: % is scaled to controls: 0 for no effect and ±100 for the full control effect); conditions: HepG2 ARE-bla reporter, beta-lactamase FRET, 16 h; activation: at 73.3 µM (top of the series) unless noted
How it was run: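 HepG2 ARE-bla reporter line, 2,000 cells/well; 5 h preincubation 37 C/5% CO2; compound (DMSO) 16 h 37 C; B/G FRET substrate 2 h RT; fluorescence intensity.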

[2] = qHTS assay for small molecule activators of the heat shock response signaling pathway - cell viability counter screen (AID 743209); conditions: HSE-bla HeLa viability, CellTiter-Glo luminescence, 5 h; activity change, negative = cytotoxicity: at 62.6 µM (top of the series); also: nearly all actives have a fitted effect of over 50% in size; also: potency is read from the fitted curve at half-maximal effect
How it was run: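 Compounds dissolved in DMSO were added to overnight-plated HSE-bla HeLa cells and left 5 h at 37 C. Cell viability was quantified by luminescence using CellTiter-Glo.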

[3] = biological target: Peroxisome proliferator-activated receptor delta (Homo sapiens) (UniProt Q03181); test: qHTS assay to identify small molecule agonists of the peroxisome proliferator-activated receptor delta (PPARd) signaling pathway (AID 743212; calls by dose curve; also: potency is read from the fitted curve at half-maximal effect; as to activation: % is scaled to controls: 0 for no effect and ±100 for the full control effect); conditions: HEK293H PPARd-UAS-bla, beta-lactamase FRET ratio, 17 h; activation: at 62.6 µM (top of the series) unless noted
Chain of UniProt Q03181 (Q03181 whole entry, looked up): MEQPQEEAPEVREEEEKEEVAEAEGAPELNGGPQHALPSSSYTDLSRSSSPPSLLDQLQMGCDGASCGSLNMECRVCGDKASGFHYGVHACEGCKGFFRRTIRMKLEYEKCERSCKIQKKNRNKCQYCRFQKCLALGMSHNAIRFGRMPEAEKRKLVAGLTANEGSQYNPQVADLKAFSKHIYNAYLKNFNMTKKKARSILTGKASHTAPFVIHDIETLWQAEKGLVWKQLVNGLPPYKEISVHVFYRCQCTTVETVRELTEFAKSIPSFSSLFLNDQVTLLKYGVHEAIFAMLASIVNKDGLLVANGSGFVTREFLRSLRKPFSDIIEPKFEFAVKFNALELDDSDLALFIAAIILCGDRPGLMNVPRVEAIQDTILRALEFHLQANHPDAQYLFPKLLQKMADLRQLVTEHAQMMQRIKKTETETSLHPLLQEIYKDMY
How it was run: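 Read-out: beta-lactamase FRET fluorescence after 2 h room-temperature incubation with LiveBLAzer B/G substrate. Cells were HEK293H carrying a UAS-bla reporter for PPARd, treated at 37 C with DMSO-dissolved compounds.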

[4] = qHTS assay for small molecule agonists of the antioxidant response element (ARE) signaling pathway - cell viability counter screen (AID 743203; calls by dose curve; also: % is scaled to controls: 0 for no effect and ±100 for the full control effect; nearly all actives have a fitted effect of over 55% in size); conditions: ARE-bla HepG2 viability, CellTiter-Glo luminescence, 16 h; viability change, negative = cytotoxic: at 73.3 µM (top of the series)
How it was run: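 ATP content via CellTiter-Glo luminescence served as the viability measure. Cells: ARE-bla HepG2, 2,000 per well. Exposure: 16 hrs, 37C/5% CO2.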

[5] = qHTS assay to identify small molecule antagonists of the vitamin D receptor (VDR) signaling pathway - cell viability counter screen (AID 743225); conditions: VDR-bla HEK293T viability, CellTiter-Glo luminescence, 16 h; viability change, negative = cytotoxic: at 61 µM (top of the series) unless noted; also: nearly all actives have a fitted effect of over 50% in size; also: potency is read from the fitted curve at half-maximal effect
How it was run: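 Same-well multiplex: following 16 h treatment of HEK 293T cells carrying a UAS-driven beta-lactamase reporter with compound and agonist (3 nM final), and a 2 h FRET substrate step, CellTiter-Glo was added and luminescence read after 30 min.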

[6] = qHTS assay for small molecule activators of the heat shock response signaling pathway (AID 743210; active = well fitted activation curve with a large enough effect in the signal ratio in the repeat runs, with a control signal flat, not every such curve was filed as active; inconclusive = weak or mixed curves; the % refers to the signal ratio; also: potency is read from the fitted curve at half-maximal effect); conditions: HeLa HSE-bla reporter, beta-lactamase ratio, 5 h; activation: at 62.6 µM (top of the series) unless noted
How it was run: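 Beta-lactamase reporter read-out: FRET substrate fluorescence after 2.5 h at RT, following 5 h compound treatment at 37 C of HeLa cells carrying HSE-driven bla reporter; quantitative HTS format.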

[7] = qHTS assay to identify small molecule antagonists of the peroxisome proliferator-activated receptor delta (PPARd) signaling pathway - cell viability counter screen (AID 743213); conditions: PPARd-bla HEK293H viability, CellTiter-Glo luminescence, 17 h; viability change, negative = cytotoxic: at 62 µM (top of the series) unless noted; also: nearly all actives have a fitted effect of over 50% in size; also: potency is read from the fitted curve at half-maximal effect
How it was run: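 Luminescence from CellTiter-Glo, added after the bla read and incubated 30 min at room temperature, gives viability of HEK293H PPARd-bla cells exposed to compounds for 17 h at 37 C with 300 nM L165041.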

[8] = biological target: Peroxisome proliferator-activated receptor delta (Homo sapiens) (UniProt Q03181); test: qHTS assay to identify small molecule antagonists of the peroxisome proliferator-activated receptor delta (PPARd) signaling pathway (AID 743215; active = well fitted inhibition curve with a large enough effect in the signal ratio in the repeat runs, not every such curve was filed as active; inconclusive = weak or mixed curves, or effect the other way; inactive = no such curve, though single readings can be large or run the other way; the % refers to the signal ratio;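 also: cells stimulated with agonist L165041 at 300 nM final during compound exposure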; also: potency is read from the fitted curve at half-maximal effect); conditions: HEK293H PPARd-UAS-bla, beta-lactamase FRET ratio, antagonist, 17 h; ratio activity, negative = inhibition: at 62 µM (top of the series) unless noted
How it was run: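 Here, a reporter line (HEK293H, beta-lactamase under a UAS) measures PPARd signaling. Compounds are tested against agonist L165041 at 300 nM final concentration over 17 h at 37 C, with fluorescence read after substrate.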

[9] = biological target: Vitamin D3 receptor (Homo sapiens) (UniProt P11473); test: qHTS assay to identify small molecule antagonists of the vitamin D receptor (VDR) signaling pathway (AID 743223; active = well fitted inhibition curve with a large enough effect in the signal ratio in the repeat runs, not every such curve was filed as active; inconclusive = weak or mixed curves, or effect the other way; inactive = no such curve, though single readings can be large or run the other way; the % refers to the signal ratio; also: potency is read from the fitted curve at half-maximal effect); conditions: VDR-UAS-bla HEK293T, beta-lactamase FRET ratio, 16 h
Chain of UniProt P11473 (P11473 whole entry, looked up): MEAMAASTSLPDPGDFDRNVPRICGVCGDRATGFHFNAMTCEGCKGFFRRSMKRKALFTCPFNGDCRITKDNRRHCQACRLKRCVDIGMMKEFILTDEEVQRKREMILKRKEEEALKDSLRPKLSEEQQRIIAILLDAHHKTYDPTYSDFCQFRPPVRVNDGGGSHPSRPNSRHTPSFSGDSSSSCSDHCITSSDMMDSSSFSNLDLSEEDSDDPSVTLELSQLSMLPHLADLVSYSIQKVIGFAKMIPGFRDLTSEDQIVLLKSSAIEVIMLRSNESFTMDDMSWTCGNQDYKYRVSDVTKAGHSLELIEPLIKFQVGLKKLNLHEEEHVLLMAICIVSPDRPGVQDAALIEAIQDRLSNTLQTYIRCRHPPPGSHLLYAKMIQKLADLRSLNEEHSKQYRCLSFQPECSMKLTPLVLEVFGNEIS
How it was run: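 Quantitative HTS in VDR-bla reporter cells stimulated with 1alpha,25-dihydroxyvitamin D3, 3 nM final. Compound exposure 16 h, 37C, 5% CO2. Read-out: beta-lactamase FRET substrate fluorescence, 2 h RT.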

[10] = biological target: Bile acid receptor (Homo sapiens) (UniProt Q96RI1); test: qHTS assay to identify small molecule antagonists of the farnesoid-X-receptor (FXR) signaling pathway (AID 743217; active = well fitted inhibition curve with a large enough effect in the signal ratio in the repeat runs, not every such curve was filed as active; inconclusive = weak or mixed curves, or effect the other way; inactive = no such curve, though single readings can be large or run the other way; the % refers to the signal ratio; also: % is scaled to controls: 0 for no effect and ±100 for the full control effect); conditions: HEK293T FXR-UAS-bla, beta-lactamase ratio, CDCA-stimulated, 16 h; activity change, negative = inhibition: at 62.6 µM (top of the series) unless noted
Chain of UniProt Q96RI1 (Q96RI1 whole entry, looked up): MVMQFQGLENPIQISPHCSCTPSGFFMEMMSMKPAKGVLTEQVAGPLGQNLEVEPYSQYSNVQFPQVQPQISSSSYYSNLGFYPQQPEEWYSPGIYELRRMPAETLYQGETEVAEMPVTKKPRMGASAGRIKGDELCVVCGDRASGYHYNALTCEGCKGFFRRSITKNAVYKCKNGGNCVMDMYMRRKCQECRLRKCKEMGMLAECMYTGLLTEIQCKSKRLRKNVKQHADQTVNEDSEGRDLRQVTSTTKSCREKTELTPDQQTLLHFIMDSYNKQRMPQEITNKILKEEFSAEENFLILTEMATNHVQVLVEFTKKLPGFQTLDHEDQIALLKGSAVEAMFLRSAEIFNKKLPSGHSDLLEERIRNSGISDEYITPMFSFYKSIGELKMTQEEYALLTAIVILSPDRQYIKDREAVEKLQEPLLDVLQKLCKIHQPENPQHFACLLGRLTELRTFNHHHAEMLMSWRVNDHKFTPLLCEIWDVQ
How it was run: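 Test compounds are pin-transferred onto FXR-bla HEK 293T cells, then chenodeoxycholic acid is added at 50 uM final. After 16 h at 37 °C, LiveBLAzer B/G substrate is applied for 2 h at room temperature and fluorescence read.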

[11] = biological target: Vitamin D3 receptor (Homo sapiens) (UniProt P11473); test: qHTS assay to identify small molecule agonists of the vitamin D receptor (VDR) signaling pathway (AID 743222; calls by dose curve; also: % is scaled to controls: 0 for no effect and ±100 for the full control effect); conditions: HEK293T VDR-UAS-bla, beta-lactamase FRET ratio, 16 h; activation: at 63.5 µM (top of the series) unless noted
How it was run: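 Tox21 cell reporter format: VDR-bla line, 16 h compound exposure in 5% CO2 at 37C, then fluorescence intensity after 2 h with LiveBLAzer B/G FRET substrate.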

[12] = qHTS assay to identify small molecule agonists of the vitamin D receptor (VDR) signaling pathway - cell viability counter screen (AID 743224); conditions: VDR-bla HEK293T viability, CellTiter-Glo luminescence, 16 h; activity change, negative = cytotoxicity: at 62.6 µM (top of the series); also: potency is read from the fitted curve at half-maximal effect; nearly all actives have a fitted effect of over 50% in size
How it was run: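 CellTiter-Glo viability readout on VDR-bla cells, measured after 16 h of compound treatment at 37C in the same wells.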

[13] = qHTS assay to identify small molecule agonists of the peroxisome proliferator-activated receptor delta (PPARd) signaling pathway - cell viability counter screen (AID 743211); conditions: PPARd-bla HEK293H viability, CellTiter-Glo luminescence, 17 h; activity change, negative = cytotoxicity: at 62.6 µM (top of the series); also: potency is read from the fitted curve at half-maximal effect; nearly all actives have a fitted effect of over 55% in size
How it was run: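 Tox21 library compounds, delivered in DMSO, were incubated 17 h with PPARd-bla HEK293H cells; cytotoxicity was taken from CellTiter-Glo luminescence read 30 min after reagent addition.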

[14] = qHTS assay to identify small molecule agonists of the farnesoid-X-receptor (FXR) signaling pathway - cell viability counter screen (AID 743218); conditions: FXR-bla HEK293T viability, CellTiter-Glo luminescence, 16 h; viability change, negative = cytotoxic: at 62.6 µM (top of the series) unless noted; also: potency is read from the fitted curve at half-maximal effect; nearly all actives have a fitted effect of over 45% in size
How it was run: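 Quantitative HTS counter screen measuring ATP-based viability via CellTiter-Glo luminescence in HEK 293T cells carrying a UAS-driven beta-lactamase reporter, after 16 h compound exposure at 37 C.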

[15] = qHTS assay to identify small molecule antagonists of the farnesoid-X-receptor (FXR) signaling pathway - cell viability counter screen (AID 743221; active = well fitted cell-killing curve with a large enough effect in the repeat runs, not every such curve was filed as active; inconclusive = weak or mixed curves, or effect the other way; inactive = no such curve, though single readings can be large or run the other way); conditions: FXR-bla HEK293T viability, CellTiter-Glo luminescence, 16 h; activity change, negative = cytotoxicity: at 62.6 µM (top of the series) unless noted
How it was run: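 Cytotoxicity is taken from ATP luminescence (CellTiter-Glo, 30 min, room temperature) in FXR-bla HEK 293T cells previously incubated 16 h at 37 C with compound and chenodeoxycholic acid at 50 uM final.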

[16] = activity change, negative = inhibition: at 61 µM (top of the series) unless noted
Tags tell the direction and shape of the fitted curve or compound fluorescence and quenching.

CC(C)C(=O)OCc1cccc(OC(=O)[C@@H]2N3C(=O)[C@@H](NC(=O)Cc4ccccc4)[C@H]3SC2(C)C)c1
Potency [1]: inactive | Potency [2]: inconclusive: 266 nM [cytotoxic, full curve, poor fit] | Potency [3]: inactive

CC(C)C(=O)Nc1cccc(C2CN3CCSC3=N2)c1 (centres undefined)
activation [1]: inconclusive: -10.8% | Potency [4]: inactive | Potency [5]: inconclusive: 8.49 µM [cytotoxic, single point]

C[Si](C)O[Si](C)(C)O[Si](C)(C)O[Si](C)C
Potency [1]: inactive | activation [6]: inconclusive: -1.1% | Potency [7]: inactive

CC/C(=C\C(=N/O)C(N)=O)C(C)[N+](=O)[O-] (centres undefined)
activation [1]: inconclusive: 39.5% | Potency [6]: inconclusive: 59.3 µM [activator] | Potency [3]: inconclusive: 13.8 µM [rising, partial curve] | ratio activity, negative = inhibition [8]: inconclusive: 0.495% | activity change, negative = inhibition [9, 16]: inconclusive: -24.6%

CCC(C)C(C)=O (centres undefined)
Potency [1]: inactive | Potency [6]: inactive

N#Cc1ccccc1
Potency [1]: inactive | Potency [2]: inconclusive: 219 nM [cytotoxic, full curve, poor fit] | activation [3]: inconclusive: 3.43%

COc1ccccc1[N+](=O)[O-]
activation [1]: inconclusive: 0.615% | Potency [2]: inconclusive: 5.5 nM [cytotoxic, full curve, poor fit] | Potency [10]: inactive | Potency [5]: inconclusive: 1.38 µM [cytotoxic, full curve, poor fit]

CCCCCCCCCCCCCCO
Potency [1]: inactive | Potency [2]: inconclusive: 2 nM [cytotoxic, full curve, poor fit]

CCCCCCCCCCCCCCC1CO1 (centres undefined)
Potency [1]: inactive | Potency [2]: inconclusive: 977 nM [rising, partial curve, poor fit]

CCC(C)(C)C1CCC(O)CC1 (centres undefined)
Potency [1]: inactive | Potency [2]: inactive | Potency [9, 16]: inconclusive: 97.7 nM [inhibitor, full curve]

C=C(C)C(=O)OCC(C)C
activation [1]: inconclusive: -11.3% | Potency [2]: inconclusive: 11100 nM [rising, full curve] | Potency [11]: inactive | activity change, negative = inhibition [9, 16]: inconclusive: -42.9% | activity change, negative = inhibition ([9]; at 78.8 µM (top of the series)): inactive: -2.49%

COC=O
activation [1]: inactive: -6.55% [at 8.36 µM] | Potency [6]: inconclusive: 4.03 µM [activator, single point] | viability change, negative = cytotoxic [7]: inconclusive: -50.9% [cytotoxic] [at 6.26 µM] | ratio activity, negative = inhibition [8]: inconclusive: -62.9% [at 6.26 µM] | Potency [12]: inconclusive: 4.03 µM [cytotoxic, single point] | viability change, negative = cytotoxic [5]: inactive: 18% [at 6.95 µM]

CCCCCCCCCCCCC(=O)O
Potency [1]: inconclusive: 61.3 µM [rising, partial curve, poor fit] | Potency [2]: inconclusive: 55200 nM [cytotoxic, single point] | Potency [6]: inconclusive: 55.2 µM | Potency [13]: inconclusive: 55.2 µM [cytotoxic] | Potency [3]: inconclusive: 55.2 µM | ratio activity, negative = inhibition [8]: inconclusive: 0.342% [at 80.4 µM] | Potency [14]: inconclusive: 55.2 µM [cytotoxic, single point] | activation [11]: inconclusive: 7.53% [at 81.1 µM] | activity change, negative = inhibition [9, 16]: inconclusive: 27.6% [at 78.8 µM]

CCOC(=O)[C@@H](C)Oc1ccc(Oc2nc3ccc(Cl)cc3o2)cc1
Potency [1]: inconclusive: 27.3 µM [rising, partial curve, poor fit] | Potency [6]: inactive | activation [3]: inconclusive: 9.94% | Potency [8]: inconclusive: 54.9 µM [rising, partial curve, poor fit] | activity change, negative = inhibition [10]: inconclusive: -17.8% | Potency [14]: inconclusive: 3.89 µM [rising, full curve, poor fit] | Potency [15]: inactive | Potency [11]: inactive

CC(CCO)CCc1ccccc1 (centres undefined)
activation [1]: inconclusive: 16.6% | Potency [2]: inactive | Potency [8]: inactive

Cc1ccc2ccccc2c1[N+](=O)[O-]
Potency [1]: inactive | Potency [2]: inactive

CCCC(C)CO (centres undefined)
Potency [1]: inactive | Potency [2]: inconclusive: 38.9 nM [rising, full curve, poor fit] | Potency [8]: inactive

O=C(N[C@@H](Cc1ccccc1)[C@@H](O)C(=O)N1C[C@@H](O)[C@@H](O)C1)c1cc2cc(Cl)ccc2[nH]1
activation [1]: inconclusive: 2.91% | Potency [6]: inconclusive: 21.9 µM [rising, single point] | Potency [3]: inconclusive: 54.9 µM [rising, partial curve, poor fit] | Potency [7]: inconclusive: 30.9 µM [cytotoxic, partial curve] | ratio activity, negative = inhibition [8]: inconclusive: -28.3%

C=COCCCCO
activation [1]: inconclusive: -0.347% | Potency [6]: inactive | Potency [3]: inactive
